The list shows a part of the results. Most values come without repeats; read them as rough.
What was measured:
Assay in all cases: cell count relative to DMSO control; melanoma cells; higher = more viable cells
Conditions in all cases: library dose: low library concentration; 72 h
MZ2-MEL = tested on: MZ2-MEL
MeWo = tested on: MeWo
RPMI7951 = tested on: RPMI7951
RVH-421 = tested on: RVH-421
SkMel28 = tested on: SkMel28
SkMel2 = tested on: SkMel2
SkMel30 = tested on: SkMel30
SkMel5 = tested on: SkMel5
UACC257 = tested on: UACC257
UACC62 = tested on: UACC62
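Note: cell number obtained by counting DAPI-stained nuclei in high-throughput microscope images with image analysis software, screen run in 1,536-well plates.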

| SMILES | cell count (MZ2-MEL) [%] | cell count (MeWo) [%] | cell count (RPMI7951) [%] | cell count (RVH-421) [%] | cell count (SkMel28) [%] | cell count (SkMel2) [%] | cell count (SkMel30) [%] | cell count (SkMel5) [%] | cell count (UACC257) [%] | cell count (UACC62) [%] |
| --- | --- | --- | --- | --- | --- | --- | --- | --- | --- | --- |
| NC(=O)c1ccc(N(C(N)=O)c2c(F)cccc2F)nc1-c1ccc(F)cc1F + COc1ccc2c(c1)CCC1C2CCC2(C)C(NCCCCCCN3C(=O)C=CC3=O)CCC12 [U73122] (first compound 0.4 µM, partner dose 0.4 µM) | 95.7 | 86.2 | 74.7 | 87.8 | 83.5 | 90.8 | 94.4 | 106 | 88.6 | 79 |
| CCCCCCCCc1ccc(CCC(N)(CO)CO)cc1 [fingolimod] + CC(C)CCN1c2nc(Nc3cc(F)c(O)c(F)c3)ncc2N(C)C(=O)C1C [BID1870] (first compound 2 µM, partner dose 0.2 µM) | 95.2 | 89.7 | 99.9 | 106 | 72 | 93.2 | 93.8 | 95.2 | 81.8 | 80 |
| CC(C)(C)c1cnc(CSc2cnc(NC(=O)C3CCNCC3)s2)o1 + C[C@@H]1CCN(C(=O)CC#N)C[C@@H]1N(C)c1ncnc2[nH]ccc12 [CP690550] (first compound 0.01 µM, partner dose 1 µM) | 105 | 106 | 103 | 95.7 | 91.3 | 107 | 93.9 | 104 | 82.6 | 83.9 |
| CC(C)(C)c1cnc(CSc2cnc(NC(=O)C3CCNCC3)s2)o1 + O=C(Nc1cccc(Cl)c1)Nc1ncc(CCNc2ncnc3ccsc23)s1 [SNS314] (first compound 0.01 µM, partner dose 0.0008 µM) | 97 | 100 | 86.7 | 97.1 | 105 | 97 | 90.8 | 103 | 68.6 | 82.4 |
| CCCCCCCCc1ccc(CCC(N)(CO)CO)cc1 [fingolimod] + CC1(C)NC(=O)N(c2ccc([N+](=O)[O-])c(C(F)(F)F)c2)C1=O [nilutamide] (first compound 2 µM, partner dose 1 µM) | 95.4 | 92.1 | 88.2 | 115 | 98 | 104 | 87.9 | 94.6 | 75.2 | 78.7 |
| CC(C)(C)c1cnc(CSc2cnc(NC(=O)C3CCNCC3)s2)o1 + COc1cc2c(Oc3ccc4[nH]c(C)cc4c3F)ncnc2cc1OCCCN1CCCC1 [cediranib] (first compound 0.01 µM, partner dose 0.4 µM) | 102 | 100 | 95.7 | 113 | 89.1 | 95 | 107 | 90.8 | 76.5 | 83.9 |
| NC(=O)c1ccc(N(C(N)=O)c2c(F)cccc2F)nc1-c1ccc(F)cc1F + OCCn1cc(-c2cnc3nnn(Cc4ccc5ncccc5c4)c3n2)cn1 [PF04217903] (first compound 0.4 µM, partner dose 1 µM) | 111 | 99.8 | 108 | 99.9 | 97.7 | 110 | 113 | 105 | 96.4 | 101 |
| NC(=O)c1ccc(N(C(N)=O)c2c(F)cccc2F)nc1-c1ccc(F)cc1F + COc1cc2ncnc(Nc3ccc(Oc4ccccc4)cc3)c2cc1OC [SrcI1] (first compound 0.4 µM, partner dose 2 µM) | 92.2 | 103 | 97.9 | 90.4 | 68.1 | 114 | 113 | 98.8 | 95.6 | 79.9 |
| NC(=O)c1ccc(N(C(N)=O)c2c(F)cccc2F)nc1-c1ccc(F)cc1F + O=C(Nc1ccccc1)c1cc([N+](=O)[O-])ccc1Cl [GW9662] (first compound 0.4 µM, partner dose 2 µM) | 93.2 | 85.3 | 94 | 110 | 91.1 | 88.4 | 80.6 | 76.2 | 82.9 | 76 |
| NC(=O)c1ccc(N(C(N)=O)c2c(F)cccc2F)nc1-c1ccc(F)cc1F + CC(C)(C)c1cnc(CSc2cnc(NC(=O)C3CCNCC3)s2)o1 [SNS-032] (first compound 0.4 µM, partner dose 0.01 µM) | 99.5 | 98 | 95.7 | 116 | 87.1 | 102 | 108 | 104 | 72.6 | 90.3 |
| CCCCCCCCc1ccc(CCC(N)(CO)CO)cc1 [fingolimod] + COc1ccc(-c2ccc3c(N4CCOCC4)nc(N4C[C@@H](C)O[C@@H](C)C4)nc3n2)cc1CO [KU0063794] (first compound 2 µM, partner dose 0.02 µM) | 90 | 106 | 72.3 | 103 | 83 | 96.3 | 78.6 | 87.1 | 61.6 | 83 |
| NC(=O)c1ccc(N(C(N)=O)c2c(F)cccc2F)nc1-c1ccc(F)cc1F + NCC(=O)Nc1ccc(-n2nc(C(F)(F)F)cc2-c2ccc3c(ccc4ccccc43)c2)cc1 [OSU03012] (first compound 0.4 µM, partner dose 1 µM) | 100 | 60.3 | 95.5 | 85.8 | 87.6 | 88.8 | 50.4 | 95.1 | 115 | 90.6 |
| CCCCCCCCc1ccc(CCC(N)(CO)CO)cc1 [fingolimod] + Oc1cc(-c2nc(-c3ccccc3)[nH]c2-c2ccncc2)ccc1Cl [L779450] (first compound 2 µM, partner dose 0.2 µM) | 68 | 96.4 | 58.4 | 84.7 | 77.5 | 108 | 85.6 | 95.7 | 85.2 | 71.6 |
| NC(=O)c1ccc(N(C(N)=O)c2c(F)cccc2F)nc1-c1ccc(F)cc1F + O=C(Nc1cccc(Cl)c1)Nc1ncc(CCNc2ncnc3ccsc23)s1 [SNS314] (first compound 0.4 µM, partner dose 0.0008 µM) | 103 | 91.7 | 96.5 | 110 | 86 | 105 | 119 | 112 | 81.2 | 90.4 |
| CCCCCCCCc1ccc(CCC(N)(CO)CO)cc1 [fingolimod] + O=C(O)C(=O)Nc1sc2c(c1C(=O)O)CCNC2 [TCS401] (first compound 2 µM, partner dose 1.66667 µM) | 103 | 99.3 | 93 | 99.2 | 95.5 | 100 | 88.3 | 79.9 | 75.7 | 73.5 |
| Cc1ccc(NC(=O)c2cccc(N(C)C)c2)cc1NC(=O)c1ccc(O)cc1 + O=C(Nc1cccc(Cl)c1)Nc1ncc(CCNc2ncnc3ccsc23)s1 [SNS314] (first compound 2 µM, partner dose 0.0008 µM) | 76.5 | 94.6 | 71.1 | 103 | 106 | 111 | 94.2 | 95.5 | 81.8 | 97.7 |
| CCCCCCCCc1ccc(CCC(N)(CO)CO)cc1 [fingolimod] + Cc1cc([N+](=O)[O-])ccc1NS(=O)(=O)c1cc(Cl)ccc1Cl [FH535] (first compound 2 µM, partner dose 1 µM) | 82.9 | 103 | 94 | 100 | 108 | 92.6 | 93.7 | 78.2 | 86.7 | 108 |
| CCCCCCCCc1ccc(CCC(N)(CO)CO)cc1 [fingolimod] + Cn1cc(/C=C2\C(=O)Nc3cccnc32)c2ccccc21 [GW441756] (first compound 2 µM, partner dose 0.4 µM) | 96.2 | 108 | 88.9 | 120 | 92.6 | 97.1 | 104 | 83.3 | 83 | 84.1 |
| NC(=O)c1ccc(N(C(N)=O)c2c(F)cccc2F)nc1-c1ccc(F)cc1F + CN(NC(=O)CC(=O)NN(C)C(=S)c1ccccc1)C(=S)c1ccccc1 [STA4783] (first compound 0.4 µM, partner dose 0.006 µM) | 108 | 79.8 | 104 | 87.6 | 96 | 106 | 98.9 | 89.6 | 88.5 | 87.5 |
| NC(=O)c1ccc(N(C(N)=O)c2c(F)cccc2F)nc1-c1ccc(F)cc1F + C[C@@H]1CCN(C(=O)CC#N)C[C@@H]1N(C)c1ncnc2[nH]ccc12 [CP690550] (first compound 0.4 µM, partner dose 1 µM) | 103 | 102 | 96.7 | 98.7 | 107 | 92.9 | 121 | 89.7 | 89.1 | 98.7 |
| CCCCCCCCc1ccc(CCC(N)(CO)CO)cc1 [fingolimod] + OCCn1cc(-c2cnc3nnn(Cc4ccc5ncccc5c4)c3n2)cn1 [PF04217903] (first compound 2 µM, partner dose 1 µM) | 86.5 | 97.5 | 94.8 | 113 | 94.8 | 94.1 | 93.7 | 79.7 | 80.4 | 85.8 |
| NC(=O)c1ccc(N(C(N)=O)c2c(F)cccc2F)nc1-c1ccc(F)cc1F + CC1(C)NC(=O)N(c2ccc([N+](=O)[O-])c(C(F)(F)F)c2)C1=O [nilutamide] (first compound 0.4 µM, partner dose 1 µM) | 116 | 104 | 97 | 109 | 100 | 94.6 | 105 | 113 | 105 | 98.7 |

Reference: the supplement of paper PMC4604168 (melanoma cell lines)
